Ends that are not written are not given here.
T1: CCR8 P_25-35 peptide construct (human, not fully specified (C-terminus); also: BAP biotinylated in vivo, fused construct pieces' sequences not given here)
T1 construct: coupled to streptavidin beads; not shown: G4S linker, V5 tag, G4S linker, chicken albumin, then FLAG tag, BAP and H3G each via SG linker
T1 chain: CDAELIQTNGK

T2: CCR8 P_1-12 peptide construct (human, not fully specified (C-terminus); also: BAP biotinylated in vivo, fused construct pieces' sequences not given here)
T2 construct: coupled to streptavidin beads; not shown: G4S linker, V5 tag, G4S linker, chicken albumin, then FLAG tag, BAP and H3G each via SG linker
T2 chain: MDYTLDLSVTTV

T3: CCR8 P_7-18 peptide construct (human, not fully specified (C-terminus); also: BAP biotinylated in vivo, fused construct pieces' sequences not given here)
T3 construct: coupled to streptavidin beads; not shown: G4S linker, V5 tag, G4S linker, chicken albumin, then FLAG tag, BAP and H3G each via SG linker
T3 chain: LSVTTVTDYYYP

T4: CCR8 P_13-24 peptide construct (human, not fully specified (C-terminus); also: BAP biotinylated in vivo, fused construct pieces' sequences not given here)
T4 construct: coupled to streptavidin beads; not shown: G4S linker, V5 tag, G4S linker, chicken albumin, then FLAG tag, BAP and H3G each via SG linker
T4 chain: TDYYYPDIFSSP

T5: CCR8 P_19-30 peptide construct (human, not fully specified (C-terminus); also: BAP biotinylated in vivo, fused construct pieces' sequences not given here)
T5 construct: coupled to streptavidin beads; not shown: G4S linker, V5 tag, G4S linker, chicken albumin, then FLAG tag, BAP and H3G each via SG linker
T5 chain: DIFSSPCDAELI

T6: cynomolgus monkey CCR8 (T4R), Mauritian origin (cynomolgus monkey, UniProt O97665 1-356 (rhesus entry))
T6 construct: also called cy CCR8 (T4R); Cy CCR8 (T4R)
T6 chain: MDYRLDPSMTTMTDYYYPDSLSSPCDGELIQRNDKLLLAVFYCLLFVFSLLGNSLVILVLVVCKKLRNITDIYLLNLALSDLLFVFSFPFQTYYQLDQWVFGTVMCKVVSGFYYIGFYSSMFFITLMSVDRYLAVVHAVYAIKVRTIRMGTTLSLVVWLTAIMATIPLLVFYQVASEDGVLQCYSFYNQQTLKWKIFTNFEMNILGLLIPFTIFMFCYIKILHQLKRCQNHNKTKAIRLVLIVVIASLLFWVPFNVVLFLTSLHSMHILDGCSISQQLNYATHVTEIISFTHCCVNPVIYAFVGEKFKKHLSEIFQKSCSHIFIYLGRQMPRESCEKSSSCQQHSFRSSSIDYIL

B1: CCR8 TCE3 scFv CC × I2E × scFc (bispecific antibody)
chain: QVQLVESGGGVVQPGRSLRLSCEASGFTFSSYVMHWVRQAPGKCLEWVSVISYDGSSQYYTDSVKGRFTISRDNSKNTLNLQMNSLRAEDTAVYYCVRGRLATAILFDYWGQGTLVTVSSGGGGQGGGGQGGGGQEILMTQTPLSLSVTPGQPASISCKSSQSLLYSDGKTYLFWYLQRPGQPPQLLIYEVSNRFSGVPDRFSGSGSGTDFTLKISRVEAEDVGIYYCMQSIKLPLTFGCGTKVEIKSGGGGQEVQLVESGGGLVQPGGSLKLSCAASGFTFNKYAINWVRQAPGKGLEWVARIRSKYNNYATYYADAVKDRFTISRDDSKNTVYLQMNNLKTEDTAVYYCARAGNFGSSYISYWAYWGQGTLVTVSSGGGGQGGGGQGGGGQQTVVTQEPSLTVSPGGTVTIT[about 80 residues not given here]FGSGTKLTVLGGGGCPPCPAPELLGGPSVFLFPPKPKDTLMISRTPEVTCVVVDVSHEEPEVKFNWYVDGVEVHNAKTKPCEEQYGSTYRCVSVLTVLHQDWLNGKEYKCKVSNKALPAPIEKTISKAKGQPREPQVYTLPPSREEMTKNQVSLTCLVKGFYPSDIAVEWESNGQPENNYKTTPPVLDSDGSFFLYSKLTVDKSRWQQGNVFSCSVMHEALHNHYTQKSLSLSPGKGGGGQGGGGQGGGGQGGGGQGGGGQGGGGQCPPCPAPELLGGPSVFLFPPKPKDTLMISRTPEVTCVVVDVSHEEPEVKFNWYVDGVEVHNAKTKPCEEQYGSTYRCVSVLTVLHQDWLNGKEYKCKVSNKALPAPIEKTISKAKGQPREPQVYTLPPSREEMTKNQVSLTCLVKGFYPSDIAVEWESNGQPENNYKTTPPVLDSDGSFFLYSKLTVDKSRWQQGNVFSCSVMHEALHNHYTQKSLSLSPGK
notes: single chain; also called CCR8 TCE3 scFv × I2E × scFc; TCE3 scFv (CCR8) x scFv (CD3) x scFc
B2: CCR8 TCE4 scFv CC × I2E × scFc (bispecific antibody)
chain: QVQLVESGGGVVQPGRSLRLSCAASGFTFSSYGMHWVRQAPGKCLEWVAVISYDGSNKYYADSVKGRFTISRDNSKNTLYLQMNSLRAEDTAVYYCARGRYFDWFLFDYWGQGTLVTVSSGGGGQGGGGQGGGGQDTVMTQTPLSLSVTPGQPASISCKSSQSLLHSDGKTYLFWYLQKPGQPPQLLISEVSNRFSGVPDRFSGSGSGTDFTLKISRVEAEDVGFYYCMQSLRLPLTFGCGTKVEIKSGGGGQEVQLVESGGGLVQPGGSLKLSCAASGFTFNKYAINWVRQAPGKGLEWVARIRSKYNNYATYYADAVKDRFTISRDDSKNTVYLQMNNLKTEDTAVYYCARAGNFGSSYISYWAYWGQGTLVTVSSGGGGQGGGGQGGGGQQTVVTQEPSLTVSPGGTVTIT[about 80 residues not given here]FGSGTKLTVLGGGGCPPCPAPELLGGPSVFLFPPKPKDTLMISRTPEVTCVVVDVSHEEPEVKFNWYVDGVEVHNAKTKPCEEQYGSTYRCVSVLTVLHQDWLNGKEYKCKVSNKALPAPIEKTISKAKGQPREPQVYTLPPSREEMTKNQVSLTCLVKGFYPSDIAVEWESNGQPENNYKTTPPVLDSDGSFFLYSKLTVDKSRWQQGNVFSCSVMHEALHNHYTQKSLSLSPGKGGGGQGGGGQGGGGQGGGGQGGGGQGGGGQCPPCPAPELLGGPSVFLFPPKPKDTLMISRTPEVTCVVVDVSHEEPEVKFNWYVDGVEVHNAKTKPCEEQYGSTYRCVSVLTVLHQDWLNGKEYKCKVSNKALPAPIEKTISKAKGQPREPQVYTLPPSREEMTKNQVSLTCLVKGFYPSDIAVEWESNGQPENNYKTTPPVLDSDGSFFLYSKLTVDKSRWQQGNVFSCSVMHEALHNHYTQKSLSLSPGK
notes: single chain; also called CCR8 TCE4 scFv × I2E × scFc; TCE4 CCR8 scFv (CCR8) x scFv (CD3) TCE x scFc
B3: CCR8 TCE1 scFv CC × I2E × scFc (bispecific antibody)
chain: EVQLVESGGGLVKPGGSLRLSCAASGFTFSNARMGWVRQAPGKCLEWVGRIKSKTEGGTRDYAAPVKGRFTISRDDSKNTLYLQMNSLKTEDTAVYYCTSYSGVWGQGTMVTVSSGGGGQGGGGQGGGGQEIVMTQSPDSLAVSLGERATINCKSSQSVLYSSNNKNYLAWYHQKPGQSPKLLISWASTRESGVPDRFSGSGSGTDFTLTINSLQAEDVAVYYCQQYYSIPITFGCGTKVEIKSGGGGQEVQLVESGGGLVQPGGSLKLSCAASGFTFNKYAINWVRQAPGKGLEWVARIRSKYNNYATYYADAVKDRFTISRDDSKNTVYLQMNNLKTEDTAVYYCARAGNFGSSYISYWAYWGQGTLVTVSSGGGGQGGGGQGGGGQQTVVTQEPSLTVSPGGTVTIT[about 80 residues not given here]FGSGTKLTVLGGGGCPPCPAPELLGGPSVFLFPPKPKDTLMISRTPEVTCVVVDVSHEEPEVKFNWYVDGVEVHNAKTKPCEEQYGSTYRCVSVLTVLHQDWLNGKEYKCKVSNKALPAPIEKTISKAKGQPREPQVYTLPPSREEMTKNQVSLTCLVKGFYPSDIAVEWESNGQPENNYKTTPPVLDSDGSFFLYSKLTVDKSRWQQGNVFSCSVMHEALHNHYTQKSLSLSPGKGGGGQGGGGQGGGGQGGGGQGGGGQGGGGQCPPCPAPELLGGPSVFLFPPKPKDTLMISRTPEVTCVVVDVSHEEPEVKFNWYVDGVEVHNAKTKPCEEQYGSTYRCVSVLTVLHQDWLNGKEYKCKVSNKALPAPIEKTISKAKGQPREPQVYTLPPSREEMTKNQVSLTCLVKGFYPSDIAVEWESNGQPENNYKTTPPVLDSDGSFFLYSKLTVDKSRWQQGNVFSCSVMHEALHNHYTQKSLSLSPGK
notes: single chain; also called CCR8 TCE1 scFv × I2E × scFc; TCE1 scFv (CCR8) x scFv (CD3) x scFc

What was measured:
[1] = biological target: T1, CCR8 P_25-35 peptide construct; experiment: flow cytometry, peptide construct on streptavidin beads, 5 µg/mL
[2] = biological target: T2, CCR8 P_1-12 peptide construct; experiment: as above
[3] = biological target: T3, CCR8 P_7-18 peptide construct; experiment: as above
[4] = biological target: T4, CCR8 P_13-24 peptide construct; experiment: as above
[5] = biological target: T5, CCR8 P_19-30 peptide construct; experiment: as above
[6] = biological target: T7, CCR8 P_1-35 peptide construct (full-length N-terminal peptide of human CCR8) (human, BAP biotinylated in vivo); experiment: as above
T7 construct: from HEK 293 supernatant, coupled to streptavidin beads; not shown: G4S linker, V5 tag, G4S linker, chicken albumin, then FLAG tag, BAP and H3G each via SG linker

[7] = biological target: T8, cynomolgus monkey CCR8 (Chinese origin) (cynomolgus monkey, UniProt O97665 1-356 (rhesus entry)); experiment: flow cytometry, CHO cells expressing cynomolgus CCR8
T8 construct: on transfected CHO cells; also called cyno CCR8; Cy CCR8

human CCR8 [8] = biological target: T9, human CCR8 (human, UniProt P51685 1-355); experiment: cell-based or functional assay
[9] = biological target: T8, cynomolgus monkey CCR8 (Chinese origin); experiment: cyno Kd divided by human Kd
[10] = biological target: T6, cynomolgus monkey CCR8 (T4R), Mauritian …; experiment: flow cytometry, CHO cells expressing cynomolgus CCR8 (T4R)
human CCR8 [11] = biological target: T9, human CCR8; experiment: flow cytometry, CHO cells expressing human CCR8
[12] = biological target: T6, cynomolgus monkey CCR8 (T4R), Mauritian …; experiment: cyno (T4R) Kd divided by human Kd
human CCR8 [13] = biological target: T9, human CCR8; experiment: flow cytometry, HuT 78 CD3E-knockout cells, 100 nM TCE after 200 nM CCL1 (competitor)
human CCR8 [14] = biological target: T9, human CCR8; experiment: flow cytometry, HuT 78 CD3E-knockout cells, competitor CCL1 200 nM
human CCR8 [15] = biological target: T9, human CCR8; experiment: flow cytometry, HuT 78 CD3E-knockout cells, 100 nM TCE, no CCL1
[16] = biological target: T4, CCR8 P_13-24 peptide construct; experiment: flow cytometry, peptide construct on streptavidin beads

Binder	Median Fluorescence of Sample/Median Fluorescence of Negative Control [1] [ratio]	Median Fluorescence of Sample/Median Fluorescence of Negative Control [2] [ratio]	Median Fluorescence of Sample/Median Fluorescence of Negative Control [3] [ratio]	Median Fluorescence of Sample/Median Fluorescence of Negative Control [4] [ratio]	Median Fluorescence of Sample/Median Fluorescence of Negative Control [5] [ratio]	Median Fluorescence of Sample/Median Fluorescence of Negative Control [6] [ratio]	Kd [7] [nM]	EC50, 48-hour FACS based cytotoxicity assay, HUT-78 (CD3+) (human CCR8 [8]) [nM]	Affinity gap Kdcy/Kdhu CCR8 [9] [ratio]	Kd [10] [nM]	Kd (human CCR8 [11]) [nM]	Affinity gap Kdcy (T4R)/Kdhu CCR8 [12] [ratio]	Average Median PE, CCL1-treated (+CCL1) (human CCR8 [13]) [median PE]	Ratio Average Median PE (+CCL1)/Average (-CCL1) (human CCR8 [14]) [ratio]	Average Median PE, CCL1-untreated (-CCL1) (human CCR8 [15]) [median PE]	binding result [16]
B1	1.1	1.1	1	1040	1.1	1270	705	28.1	103	142	6.86	20.7	–	–	–	–
B2	1.1	1	1	746	1.1	843	796	0.265	23.9	268	33.2	8.06	–	–	–	–
B3	1	306	1	1.1	1.1	382	2	0.0582	2.08	186	0.96	194	23100	1	23200	no binding (tested: 5 µg/mL)

Source: US20250129160A1 (Amgen, published 2025)
